We go through one molecule from patent publication US20210024639A1 (AGOMAB THERAPEUTICS, published 2021).

For assay [1], the target named is T1, native human MET on living human cells (human, UniProt P08581). The experiment in a line: cell-based or functional assay.
For assay [2], the target named is T1, native human MET on living human cells. Put plainly: cell-based or functional assay. The source holds these as a separate data set.
T1 sequence (P08581 25-1390): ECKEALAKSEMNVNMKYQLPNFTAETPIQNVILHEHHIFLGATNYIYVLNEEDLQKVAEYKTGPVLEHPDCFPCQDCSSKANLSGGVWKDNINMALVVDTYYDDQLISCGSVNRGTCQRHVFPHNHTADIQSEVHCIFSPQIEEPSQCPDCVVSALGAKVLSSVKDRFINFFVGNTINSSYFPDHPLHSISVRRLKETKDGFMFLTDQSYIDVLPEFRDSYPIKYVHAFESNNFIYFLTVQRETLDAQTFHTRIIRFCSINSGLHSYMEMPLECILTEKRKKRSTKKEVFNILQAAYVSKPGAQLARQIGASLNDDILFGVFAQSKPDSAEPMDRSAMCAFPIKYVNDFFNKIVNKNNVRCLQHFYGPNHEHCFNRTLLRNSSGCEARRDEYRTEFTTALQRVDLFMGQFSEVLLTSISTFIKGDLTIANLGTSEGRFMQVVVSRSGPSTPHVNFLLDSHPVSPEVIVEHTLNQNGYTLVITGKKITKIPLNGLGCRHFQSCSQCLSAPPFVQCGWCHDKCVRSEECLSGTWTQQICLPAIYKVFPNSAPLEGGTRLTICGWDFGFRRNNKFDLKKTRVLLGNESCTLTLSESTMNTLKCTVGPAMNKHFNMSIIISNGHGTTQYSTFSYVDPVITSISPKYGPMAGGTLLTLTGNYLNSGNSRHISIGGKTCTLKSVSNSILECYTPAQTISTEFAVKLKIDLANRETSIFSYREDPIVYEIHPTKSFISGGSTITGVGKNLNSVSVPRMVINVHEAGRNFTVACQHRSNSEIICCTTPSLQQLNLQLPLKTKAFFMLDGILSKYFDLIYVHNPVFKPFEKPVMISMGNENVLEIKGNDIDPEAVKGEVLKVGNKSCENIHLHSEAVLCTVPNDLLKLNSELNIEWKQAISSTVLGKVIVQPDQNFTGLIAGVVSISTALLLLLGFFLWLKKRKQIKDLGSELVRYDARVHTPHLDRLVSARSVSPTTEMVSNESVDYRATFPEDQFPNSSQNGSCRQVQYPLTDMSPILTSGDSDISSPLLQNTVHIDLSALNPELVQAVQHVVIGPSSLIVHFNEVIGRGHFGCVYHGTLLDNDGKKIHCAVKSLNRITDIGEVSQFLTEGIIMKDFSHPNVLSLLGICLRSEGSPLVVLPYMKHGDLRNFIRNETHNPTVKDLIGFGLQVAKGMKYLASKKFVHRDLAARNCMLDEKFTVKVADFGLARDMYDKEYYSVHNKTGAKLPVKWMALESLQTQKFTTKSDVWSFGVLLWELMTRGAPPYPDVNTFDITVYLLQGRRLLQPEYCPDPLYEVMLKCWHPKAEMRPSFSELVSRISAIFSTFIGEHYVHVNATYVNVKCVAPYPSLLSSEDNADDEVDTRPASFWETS

B1: recombinant human HGF (R&D Systems) (ligand)
chain: not shown
modifications: biotinylated at the N-terminus using NHS-LC-biotin in the competition ELISA only
Turning to B1, in assay [1], the “cell scattering score, HPAF-II, 0.001 nM” value is 0 score 0-4; the “cell scattering score, HPAF-II, 0.004 nM” value is 1 score 0-4; the “cell scattering score, HPAF-II, 0.012 nM” value was found to be 2 score 0-4; the “cell scattering score, HPAF-II, 0.037 nM” value is 3 score 0-4. Further, in assay [1], the “cell scattering score, HPAF-II, 0.111 nM” value was 4 score 0-4; the “cell scattering score, HPAF-II, 0.333 nM” value came out at 4 score 0-4; the “cell scattering score, HPAF-II, 1.000 nM” value came out at 4 score 0-4; the “cell scattering score, HPAF-II, 3.000 nM” value stood at 4 score 0-4. Further, the “cell scattering score, HPAF-II, 9.000 nM” value in assay [1] worked out at 4 score 0-4. For the same molecule, in assay [2], the “protection from staurosporine, viability EC50, MCF10A” value worked out at 4.57 nM and the “protection from staurosporine, viability EMAX, MCF10A” value came to 59.3%.
